According to PubChem BioAssay AID488969 (Vanderbilt High Throughput Screening Facility, 2010):
The full ranking holds about 110,000 compounds; the median of “z-score” is about -0.1, and the highest 2% start at about 2. Some of the results follow. Calls of active or inactive are those of the source.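 Rule for the calls: active = z-score in the third read window above 3 or below -3; inactive = the rest.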

The molecules below were run against Metabotropic glutamate receptor 8 (Rattus norvegicus) (UniProt P70579) (assay: mGluR8 Gi/Go-coupled signaling modulation – cell-based, rat, thallium flux, HTS, primary screen (AID 488969)). Settings: HEK293 rat mGluR8, GIRK (G protein-gated inwardly rectifying potassium channel) thallium flux, FluoZin2; at 10 µM; stronger effect = higher value; submaximal glutamate (EC20) added with thallium.
UniProt P70579, sequence (P70579 whole entry, looked up): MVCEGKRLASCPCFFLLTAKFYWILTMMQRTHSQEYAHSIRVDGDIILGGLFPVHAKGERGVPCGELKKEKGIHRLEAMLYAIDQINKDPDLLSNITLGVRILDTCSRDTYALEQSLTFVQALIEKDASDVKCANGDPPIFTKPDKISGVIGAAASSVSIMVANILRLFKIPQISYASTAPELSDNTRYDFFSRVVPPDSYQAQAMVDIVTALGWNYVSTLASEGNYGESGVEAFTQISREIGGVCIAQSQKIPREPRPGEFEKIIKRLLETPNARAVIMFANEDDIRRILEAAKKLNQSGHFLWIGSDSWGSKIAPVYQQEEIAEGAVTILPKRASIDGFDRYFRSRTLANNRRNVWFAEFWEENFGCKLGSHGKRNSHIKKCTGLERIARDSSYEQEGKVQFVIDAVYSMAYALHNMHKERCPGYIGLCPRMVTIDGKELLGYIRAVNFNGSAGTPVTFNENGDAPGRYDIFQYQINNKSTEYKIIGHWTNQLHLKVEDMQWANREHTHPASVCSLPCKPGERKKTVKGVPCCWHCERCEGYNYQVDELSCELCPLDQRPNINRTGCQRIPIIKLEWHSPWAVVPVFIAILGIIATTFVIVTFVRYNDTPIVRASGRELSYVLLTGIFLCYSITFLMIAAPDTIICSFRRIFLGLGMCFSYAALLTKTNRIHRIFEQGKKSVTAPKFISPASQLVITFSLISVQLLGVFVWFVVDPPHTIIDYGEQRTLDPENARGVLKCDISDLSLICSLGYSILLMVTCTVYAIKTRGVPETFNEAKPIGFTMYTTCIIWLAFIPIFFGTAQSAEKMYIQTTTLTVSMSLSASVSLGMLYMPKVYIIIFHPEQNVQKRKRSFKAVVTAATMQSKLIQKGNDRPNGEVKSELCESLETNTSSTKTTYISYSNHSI

SMILES	z-score
COC(=O)c1ccc(NC(=O)Nc2ccc(F)c(Cl)c2)cc1	-0.0366
CC(NC(=S)Nc1ccccc1OC(F)F)C(C)(C)C (configuration not stated)	-0.263
CCC1CCCCN1Cc1ccc(OC)c(C)c1C (configuration not stated)	0.363
CCN(CC)c1ccc(C2N(C(=O)N3CCOCC3)CCN2S(=O)(=O)c2ccc(C)cc2)cc1 (configuration not stated)	-0.201
CC(CC(=O)O)CC(=O)Nc1ccc(S(N)(=O)=O)cc1 (configuration not stated)	-0.0167
Cc1ccc(NC(=S)NCCc2ccc(S(N)(=O)=O)cc2)c(C)c1	-0.0554
Cc1ccc(C)c(OCC(=O)N/N=C/c2c(C)nn(-c3ccccc3)c2Cl)c1	2.98
COc1ccccc1C(=O)NCCNC(=O)c1ccco1	0.00734
O=C(Nc1nccs1)c1cc2sccc2n1Cc1ccc(Cl)cc1	0.813
COC(=O)C(Cc1ccccc1)NC(=O)COc1ccc(C(C)(C)C)cc1 (configuration not stated)	0.0425
COCCN1C=C(C(=O)OC)C(c2ccc(OC)c(OC)c2)C(C(=O)OC)=C1	0.493
C/C(N)=C(/C#N)C(=O)COC(=O)C(NS(=O)(=O)c1ccc(Cl)cc1)C(C)O (configuration not stated)	1.18
COCC(C)NC(C(=O)Nc1ccc(C)c(Cl)c1)c1ccccc1 (configuration not stated)	-0.19
CC1(C)CC2CC(C)(CN2C(=O)NC(=O)c2ccccc2)C1 (configuration not stated)	-0.259
CCOC(=O)c1ccc(NC(=O)c2ccc(CN3CCOCC3)cc2)cc1	0.0575
Fc1ccc(Nc2nc(Oc3ccccc3F)nc(N3CCCC3)n2)cc1	-0.254
CCOC(=O)c1c(C)cc(=O)oc1C	0.0603
CN(CC(=O)Nn1cnnc1)S(=O)(=O)c1ccc(Br)cc1	active: 4.35
CC(=Nc1ccccc1)C1=C(O)CSC1=O	-0.287
CCOc1ccccc1CNc1nc2nc3c(c(=O)n2[nH]1)CCC3	-1.1
O=C1Nc2cc(Cl)c(Cl)cc2N(O)N1c1cccc(Cl)c1	-0.178
O=C(COC(=O)C1CCN(S(=O)(=O)c2cccc3cccnc23)CC1)c1ccc(F)cc1	-0.302
CN(C(=O)CN1CCC(NC(=O)C2CCCCC2)CC1)C1CCCCC1	-0.127
CC(=O)C1=C(O)C(=O)N(c2ccc(Br)cn2)C1c1ccccc1F (configuration not stated)	-0.397

SMILES	z-score
C=CCOc1ccccc1CN1CCSCC1	0.199
O=c1ccc2cc(S(=O)(=O)N3CCN(c4ccccc4)CC3)ccc2o1	-0.349
CCc1nnc(NC2=NCCC2)s1	-1.03
CC12CC(NC(=O)N1CCc1ccccc1)c1ccccc1O2 (configuration not stated)	-0.0397
Fc1ccccc1N1CC(c2ccccc2)C(c2cccs2)=N1 (configuration not stated)	0.706
Oc1ccc(/C=N/Nc2ncc(Br)cn2)c(O)c1	-0.00188
c1ccc(Nc2cccc(Nc3ccccc3)n2)cc1	0.399
O=C(COc1ccccc1Cl)Nc1nc(-c2cccs2)cs1	0.4
O=C(Nc1cccc(S(=O)(=O)Nc2ccc(Cl)cc2)c1)c1ccc2c(c1)OCCO2	-0.236
CCCCN(CC)Cc1ccc(CNC(=O)Nc2ccc(OCC)cc2)o1	-0.0885
O=C(NC1CCCCC1)C1CCC(CNS(=O)(=O)c2cccc3nsnc23)CC1 (configuration not stated)	-0.329
Nc1nnc(COc2ccc(Br)cc2Br)s1	0.953
CCOc1ccc(Cn2nnc(C(=O)NCc3ccc(OC)cc3)c2N)cc1	-1.72
COc1ccc(C(=O)NNC2=NC(C)(C)Cc3cc(C)c(C)cc32)cc1	-0.742
Cc1ccccc1NS(=O)(=O)c1ccc(OCCNS(C)(=O)=O)cc1	-0.0428
CCOC(=O)c1ccccc1NC(=O)CN1C(=O)c2ccccc2S1(=O)=O	-0.169
COCCCNC(=O)Cn1nc(-c2ccccc2OC)ccc1=O	-0.0761
Cc1ccc(S(=O)(=O)N2CCN(C(=O)N(c3ccccc3)c3ccccc3)CC2)cc1	-0.559
COc1cc2c(cc1NC(=O)COC(=O)C(CCSC)NC(=O)c1ccccc1Cl)oc1ccccc12 (configuration not stated)	-0.0883
Cc1ccccc1OCc1nnc2n1CC(C)S2 (configuration not stated)	-0.449
O=C(NCCN1CCCC1)c1ccc(Cn2c(=S)[nH]c3cc4c(cc3c2=O)OCO4)cc1	-0.289
Nn1c(CSc2nc3ccccc3o2)nnc1CSc1nc2ccccc2o1	-0.0302
CCN(CC)c1ccc(NC(=O)CN2CCN(c3ccccc3F)CC2)cc1	-0.441
CSCCOC(=O)C1=C(C)Nc2ccc(C)cc2S1	0.201

SMILES	z-score
CSc1nc2n(n1)C(c1cccc(F)c1)C(C(=O)Nc1ccc(C)cc1C)=C(C)N2 (configuration not stated)	-0.125
CCCCNC(=S)NNC(=O)c1cc(C)on1	-0.144
CCc1c(C(C)O)oc2ccc3c(C)cc(=O)oc3c12 (configuration not stated)	-0.164
O=C(NCc1ccccc1)c1cccc(COc2ccccc2Cl)c1	-0.297
C=CCNC(=O)c1onc(CSc2cc(C)ccc2C)c1C(=O)O	0.136
Cc1ccc(-c2ccc(CCC(=O)O)n2NC(=O)c2cccs2)cc1	-0.399
COc1ccc(C(C(=O)NC2CCCCC2)N(C(=O)CCl)c2ccc(OC)cc2)cc1 (configuration not stated)	-0.0726
Cc1cc(C)n(-c2c(F)c(F)c(COC(=O)c3ccccc3)c(F)c2F)n1	-0.136
COc1ccc(C(CC(=O)O)NC(=O)C2CCCCC2)cc1 (configuration not stated)	1.24
CCCCOc1ccc(NC(=O)CSCC(=O)OCC)cc1	-0.41
CC1(C)Cc2cccc(OCC(=O)NC3CC3)c2O1	-0.0613
COC(=O)Nc1nnc(CCc2ccccc2)s1	1.27
CCOC(=O)c1nnn(CC(=O)N2N=C(c3cccc4ccccc34)CC2c2ccccc2)c1C(=O)OCC (configuration not stated)	-0.0979
CC12CC(NC(=O)N1c1cccc(C(=O)Nc3ncn[nH]3)c1)c1ccccc1O2 (configuration not stated)	-0.175
CCN(CC)CP(=O)(c1ccccc1)c1ccccc1	0.28
COc1ccc(-c2cc(C(F)(F)F)nc(N3CCN(C)CC3)n2)cc1	0.816
Cc1ccc(S(=O)(=O)NC2CCCc3ccccc32)cc1C (configuration not stated)	0.203
CC1CCc2cc(F)ccc2N1C(=O)c1cc2nc(-c3ccco3)cc(C(F)(F)F)n2n1 (configuration not stated)	-0.816
CCCC1=Nc2cc(C(=O)NCc3ccco3)ccc2Sc2ccccc21	-0.285
O=C(NCC1CCCO1)c1ccc(NC(=O)C2C3C=CC(C3)C2C(=O)O)cc1 (configuration not stated)	-0.188
CC(=O)c1cnc2c(-c3ccc(Cl)cc3)c(C)nn2c1C	-0.623
O=C(c1ccc(=O)n(Cc2ccc(Cl)c(Cl)c2)c1)N1CCOCC1	-0.194
N#Cc1nc(Cc2ccccc2)oc1N1CCN(c2cccc(Cl)c2)CC1	0.287
COc1ccc(C(=O)NC(=S)NCc2ccc(-c3nc4ccccc4o3)cc2)cc1OC	-0.0448
